Experimental data from PMC4242493.
The other results are listed elsewhere or left out. The list includes weakly bound sequences.

molecular target: MaxL homodimer (UniProt P61244); assay: universal protein-binding microarray (PBM); conditions: PBS-based mixture, 10 nM His-tagged protein dimer, 2% milk, 200 ng/uL BSA, 50 ng/uL salmon testes DNA, 0.02% TX-100; detection with Alexa 488 anti-His …; high values mean tight binding; most listed sequences are background and not binding sites; double strand, one strand shown
UniProt P61244, sequence (P61244 whole entry): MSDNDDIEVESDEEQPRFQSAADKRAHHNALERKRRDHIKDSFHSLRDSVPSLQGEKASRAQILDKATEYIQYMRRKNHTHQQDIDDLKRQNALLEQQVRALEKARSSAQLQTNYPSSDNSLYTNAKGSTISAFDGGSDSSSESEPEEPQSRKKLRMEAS

Sequence | binding signal (normalized occupancy)
CAGCGCAG | 0.0701
CCCGAAGC | 0.0698
AGGAGATA | 0.08
GGGGAGAA | 0.0797
GATGGTGA | 0.0878
ACGCCCAT | 0.0792
CAGTGGTA | 0.0768
AGCTCTCA | 0.0708
CCTAGACA | 0.0763
AACCATGT | 0.0862
GACACTAC | 0.0741
ACGGGTAG | 0.0748
AGCCTTGC | 0.0678
CTCAGAAG | 0.0683
AGGGATAG | 0.078
CCGATTCC | 0.0698
ATTGTTGA | 0.0777
AGCTCGTC | 0.0632
CCCCCGGA | 0.0713
AACACACA | 0.0847
AAGTCAGT | 0.0707
CGAACTAA | 0.0684
AACGTGTA | 0.11
CCCTAGCA | 0.079
CTTCGGAA | 0.0648

Sequence | binding signal (normalized occupancy)
ACCAACAG | 0.0726
GATTATGC | 0.0788
CGCCCCCA | 0.0794
AATCGGTG | 0.071
CCCATGAA | 0.0827
TACTCCCA | 0.0786
GGCTTCAA | 0.0709
ATCATGTG | 0.137
GTCATCCA | 0.0814
CTCAGGCC | 0.0749
AGGCCGGG | 0.0664
ATTCATAG | 0.075
AAGACAGG | 0.0727
AAATGCCT | 0.0805
GTAGTCTA | 0.0723
ATTACACG | 0.0847
GCGCCCGC | 0.0684
CACACGAG | 0.0978
ACTAGGCA | 0.0757
CGTTTACA | 0.0739
AATATTCA | 0.079
GCCTTCAA | 0.0735
GATGTTCA | 0.0756
CCATCAGA | 0.077
AGGTGTCA | 0.0794

Sequence | binding signal (normalized occupancy)
GTCTATGA | 0.0735
AATCGTTA | 0.0761
ATTGTGCC | 0.0808
AATTAGCT | 0.0717
AGGTACGG | 0.0689
ACAGCCGT | 0.0716
AAATATTT | 0.0809
ACTCCGTA | 0.0697
ATTGCGTC | 0.0761
CCCACGCC | 0.099
AGGGAAAA | 0.0755
GAAGCATA | 0.075
TGAAAAAA | 0.074
GAGTTTGC | 0.0731
CAATTTGC | 0.0711
CCGGTGAA | 0.0709
ACCGCTCG | 0.0704
CCCTGAAC | 0.079
TACATGGA | 0.0848
CCCGCACG | 0.0845
CAAGAACA | 0.075
AACGTTCG | 0.0711
ATCGGACC | 0.0691
ATGCCTAG | 0.0767
AAACACAC | 0.0879

Sequence | binding signal (normalized occupancy)
ATCTGGGG | 0.0754
ACTCGAGG | 0.0766
ACACCTAT | 0.0786
GTAGCCAC | 0.0749
GCTACCAA | 0.0737
AGTCGTGG | 0.0775
AGATGCTG | 0.078
CGGCCACG | 0.0871
CGTCGTAC | 0.0758
TCCGGCCA | 0.0655
AGCGTATC | 0.0784
TAGAGTCA | 0.0824
GAATTGTC | 0.0721
GAGACTAA | 0.0684
CAATTTGA | 0.0713
CCCTATTC | 0.0783
GCACATGA | 0.12
TTATTAAA | 0.0787
CAACGTGC | 0.122
CGCATTTC | 0.0783
ACGGAAGG | 0.0728
ACATACAG | 0.0868
GTGTACTA | 0.0798
CATAGCGC | 0.0707
ATTCAGCG | 0.0733

Sequence | binding signal (normalized occupancy)
AGGATTCC | 0.071
GGAACCCC | 0.0696
CCAAAACA | 0.0783
CACCACGC | 0.119
CCGAACCC | 0.0766
ACTGGGCT | 0.0665
AGGCACAA | 0.0747
AAGCTACG | 0.0726
CTTCACTA | 0.0774
AATCCCAC | 0.0848
AACGGGAG | 0.0711
GCCTGCAC | 0.0692
GTAGCCGA | 0.0653
CTACAGAA | 0.075
GGACACCC | 0.0753
GTATGTCA | 0.0841
AATTATTG | 0.0729
AGGGGTTG | 0.0811
GCTCATAC | 0.0755
CCGCACGA | 0.0824
CGATTGTC | 0.0706
ATTCCGCG | 0.0718
CATATTGG | 0.0794
TGCTAGAA | 0.0722
AAGTATCT | 0.0762

Sequence | binding signal (normalized occupancy)
TCGGGACA | 0.0752
AACCCTCA | 0.078
CAATTAGC | 0.0696
ATCATTGA | 0.0818
GACGGACC | 0.0664
CAGCGGAA | 0.0674
TCATTAAA | 0.0798
ACATTCAT | 0.0895
AGCATAGG | 0.0718
GACGTTGC | 0.0687
CAAAAGGG | 0.0694
AACGAGCA | 0.0804
GTATGTAA | 0.086
CCTGATCA | 0.0815
AACAAAAG | 0.0736
CGGGCGAC | 0.071
CTGCATAA | 0.0739
ATTTGTGA | 0.0802
ATTACATA | 0.0851
AATCTACG | 0.0693
AGCGTTCA | 0.0757
GCAACTTA | 0.0721
CACACGCG | 0.124
CCTAACAG | 0.0728
CGGTGGCA | 0.0801

Sequence | binding signal (normalized occupancy)
ATACAGGC | 0.0763
GCAAGAGA | 0.0745
GGTAGGAA | 0.0713
TAATAGAA | 0.0818
ACAAAGTC | 0.0679
GTAGTGTA | 0.0717
GCGATATA | 0.0746
GCTGCTGA | 0.0725
ACGGTGCT | 0.0757
AATTCATC | 0.0791
GCCCTAAA | 0.0737
TCGTATAA | 0.0765
AGCTAGTC | 0.0711
ATCGGGGA | 0.0754
AGTTGCAT | 0.0779
CTCGTTCC | 0.0761
CGCAGAAC | 0.0697
AGAATCAG | 0.0794
TGTCGAAA | 0.0778
AGCCTATA | 0.0794
ATGTTGAC | 0.085
AATATATT | 0.0791
ATAATACA | 0.0803
CTTGCCCA | 0.0706
ACGAGAAG | 0.0756

Sequence | binding signal (normalized occupancy)
ACATTTTG | 0.0837
AACTACGA | 0.0728
AAGGAGCA | 0.076
GATCACTA | 0.0731
ATGTCGGC | 0.0776
GTACCTGA | 0.0735
ATAACATG | 0.0981
GATCCTAA | 0.0791
CTTCTGCC | 0.0759
AAAGAACG | 0.0757
ATGTCCAA | 0.0758
ATCGCAGA | 0.0768
ACAAGGAG | 0.0757
CGTATTAA | 0.0762
TCGTCACA | 0.0793
GCAGACCA | 0.0734
ACGTGGAG | 0.0976
TCCAACCA | 0.0763
GATACGAA | 0.0761
CGCGTCAC | 0.0789
CCTCAGGA | 0.0751
CATACAAG | 0.0851
CCTGAATA | 0.0736
AGTAATCC | 0.0767
TCTCTCCA | 0.0821

Sequence | binding signal (normalized occupancy)
AAGAGCTA | 0.0682
AGTGGAAA | 0.0836
ACAACTCG | 0.0787
GAAACGGC | 0.0677
AAACCCTA | 0.0744
CATTCACC | 0.0836
ACGAGATC | 0.0779
AGAGGACC | 0.0728
TGTTCGAA | 0.0694
AACTATGA | 0.0783
AAACAGCG | 0.072
AAAAGGTT | 0.071
CAACTTTC | 0.0746
ATACTCAA | 0.0777
TCGCGAGA | 0.068
ATATCTTC | 0.0807
AGAAGTAG | 0.0755
AGCCCCAT | 0.0767
AGGAAGAG | 0.0724
AATCCCCT | 0.0758
CAGAGATA | 0.0737
AGTCAACC | 0.0747
GGGTTCAC | 0.0748
GAGACCGA | 0.0733
ATCGGCAC | 0.0716

Sequence | binding signal (normalized occupancy)
CCTACCAG | 0.0689
ACTCACGC | 0.0832
TTCTACAA | 0.0779
GGTCAGAC | 0.0735
ATACTACC | 0.0814
ACATCTCC | 0.0802
AACCACCT | 0.0839
ACAGTGGC | 0.07
ACCCGCAC | 0.083
AGAGGCTC | 0.0653
CGCGGGTA | 0.0791
ATGAGAAC | 0.0777
AAGACGGT | 0.0701
ATGCTATA | 0.0889
ATCGTTGC | 0.0737
AATAGATA | 0.08
GGCCTCGA | 0.0787
ATCCTAAA | 0.0762
CACTACCA | 0.0779
AATGTTGC | 0.0781
AAGGTGGG | 0.0714
GCGGAATA | 0.075
TCCTACGA | 0.0718
AAAAGCTG | 0.0641
ATGAGAGA | 0.0898

Sequence | binding signal (normalized occupancy)
CCGGTCAC | 0.0741
GTTAGACA | 0.0808
ACTACAAA | 0.0783
CTATCGTA | 0.077
GTGCTAAA | 0.0773
CTAGAAGA | 0.0731
CTACAACC | 0.0791
CCAGTTAG | 0.0695
CTGGGCCC | 0.0669
ATGTCTAG | 0.0754
CCTAAACC | 0.0739
AAGCCGGG | 0.066
AAGCAAGC | 0.0685
TCCTATAA | 0.0807
CGCACTTA | 0.0747
GTATCTTA | 0.0758
CAGGACGG | 0.0678
AGGGCCAC | 0.0691
CAGAAGCG | 0.0708
GGCGGGCA | 0.0691
CTATGAGC | 0.0756
CCGTCCCC | 0.0746
GCACACAA | 0.0771
CAGCGCTG | 0.0703
AGGTGGGA | 0.0749

Sequence | binding signal (normalized occupancy)
GCCGTAGA | 0.0724
GGTATGAC | 0.0847
CAGATGAA | 0.0778
TCCAAAGA | 0.0685
AACCGGAA | 0.0675
ACACTGGA | 0.0764
GCATATCA | 0.0789
GATAAATC | 0.0742
ATATACGC | 0.08
ATGAACCG | 0.0717
AGTCAGAG | 0.0732
CATGACAA | 0.0842
CGAATAGA | 0.0736
CGGGCTCA | 0.0689
GACGTACA | 0.0745
AATCGATG | 0.0715
CAACGGCC | 0.069
AAACAGGG | 0.0718
GCGCGAGC | 0.0687
CTTCGTTC | 0.0699
ACTGCCTG | 0.0673
CAGTCCTA | 0.0753
GAGACCGC | 0.0679
GTAGTTCA | 0.0779
AAGTGGGG | 0.0764

Sequence | binding signal (normalized occupancy)
CTCCAAAG | 0.0693
CGAGAGGC | 0.0708
GATAGTCA | 0.0795
CCTAAGCG | 0.0698
AAACGCGG | 0.0761
GCAGGGAC | 0.0705
TGTGTAAA | 0.0789
CAGCAGTC | 0.0698
CAGAATTA | 0.0699
AGGCAGTG | 0.0739
AATCGTCG | 0.0717
ACTATGTA | 0.0762
CGAGTTCC | 0.0757
GACCTCAC | 0.0775
AGAGATCG | 0.0698
GTTATTAA | 0.0795
CCATCGCA | 0.0764
GACATCGC | 0.078
GTTTCGTA | 0.0726
CTATGGTC | 0.0719
ACTACATA | 0.0838
ACCGAGAA | 0.0735
AGACGGCA | 0.0736
CATCTTGG | 0.0746
AGAAAACA | 0.0733

Sequence | binding signal (normalized occupancy)
GAGAATCC | 0.0727
CCGAGGAG | 0.0685
ATAATTAA | 0.081
CTATTAGC | 0.074
GCATAGAC | 0.0736
CCATTGCC | 0.0742
CCGCTCCG | 0.0636
CTTACGAC | 0.0712
AAGATTTG | 0.0743
AGGTAGGG | 0.0763
CCTGTCCA | 0.0768
CTATCATC | 0.0805
TCGACCGA | 0.0661
ATAGTATC | 0.0757
CCCCCGTA | 0.0776
CGGACTGC | 0.0673
CTACGTAA | 0.0737
GAACTTTA | 0.0689
CCACAGTC | 0.071
